# According to the supplement of paper PMC3334620:
# In all, about 33,000 sequences were measured (“E-score (-0.5 to 0.5)”: median about -0.035, highest 2% from about 0.34 on). The list shows a part of the results.
# Target: T1, Mot3 (UniProt P54785)
# T1 sequence: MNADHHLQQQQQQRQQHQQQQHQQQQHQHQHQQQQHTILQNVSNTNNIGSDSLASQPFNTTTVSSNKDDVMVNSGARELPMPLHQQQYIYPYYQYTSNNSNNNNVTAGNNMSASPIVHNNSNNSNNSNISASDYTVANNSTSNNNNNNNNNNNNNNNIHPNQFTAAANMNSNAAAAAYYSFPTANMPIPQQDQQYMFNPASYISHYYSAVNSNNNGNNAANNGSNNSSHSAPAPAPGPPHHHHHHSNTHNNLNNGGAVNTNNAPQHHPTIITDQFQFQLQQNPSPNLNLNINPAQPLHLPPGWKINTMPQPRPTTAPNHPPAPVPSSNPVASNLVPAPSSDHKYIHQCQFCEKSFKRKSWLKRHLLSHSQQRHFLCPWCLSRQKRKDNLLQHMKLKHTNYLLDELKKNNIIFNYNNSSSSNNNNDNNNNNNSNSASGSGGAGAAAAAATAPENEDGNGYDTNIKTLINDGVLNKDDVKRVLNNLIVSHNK
# Experiment: PBM E-score (8-mer binding enrichment) (E-score (-0.5 to 0.5)); higher = stronger / more preferred TF binding; most listed sequences are background and not binding sites
# Settings: protein concentration: 200 nM; construct: GST-full length
# Description: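 Universal 'all 10-mer' protein binding microarrays (Agilent AMADID 015681) probed with GST-tagged S. cerevisiae TFs (full-length or DBD) made by in vitro transcription/translation (PURExpress), about 100-200 nM. Bound TF was detected with fluorescent anti-GST. Each ungapped 8-mer (which stands for itself and its reverse complement) is scored by the PBM enrichment score (E-score), a modified Wilcoxon-Mann-Whitney statistic from -0.5 to +0.5, computed with the Universal PBM Analysis Suite. Scale: above 0.35 generally sequence-specific binding.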
row,Sequence,PBM E-score
1,CTACTCAG,0.0407
2,AGCGGTCC,-0.235
3,AATGCCTG,0.352
4,TACGTGAA,0.161
5,CTAAGGGA,-0.208
6,AAAATTAA,0.129
7,CTTTCACA,0.206
8,AACAAGAG,0.251
9,CATGCCAC,0.0587
10,GCGGCCTA,-0.128
11,AGATAGTA,-0.0082
12,GGGAGCCA,-0.163
13,CGACATCA,-0.00785
14,AGCGGCGC,-0.193
15,GCCCTTAA,-0.0233
16,GAAGGGTC,-0.0602
17,ACAAGTCT,0.198
18,TATCGACA,0.209
19,ATAAGTTC,-0.0796
20,CCCGACGG,-0.168
21,TATCGCCA,-0.244
22,CATCACAA,0.19
23,AAAGCCGG,-0.133
24,AGACATAT,0.098
25,CACTCGTC,-0.185

row,Sequence,PBM E-score
1,GAACTACA,0.156
2,GTGATCCA,-0.152
3,GTGTACAA,0.325
4,GACCACTA,-0.0309
5,AGGAGAAA,-0.173
6,CTCTATGA,-0.0519
7,AAATTGCG,0.173
8,AATAGACA,0.157
9,GGCTTTAC,0.215
10,ACCGGAGT,-0.0522
11,CAGTGCCA,-0.156
12,ATCTAGAT,-0.173
13,AGGTTTGG,-0.141
14,ACAAGTCC,-0.0137
15,GAATAACA,0.277
16,CTCTTAGC,-0.0379
17,ATCAGTCA,0.165
18,ATGAACTC,-0.14
19,AACTGACA,0.155
20,GAAGCTTA,-0.0105
21,AATATATC,0.12
22,ATTACCAC,0.0997
23,AGGAAAAT,0.416
24,GATTAAGA,0.14
25,AATACCAA,-0.0344

row,Sequence,PBM E-score
1,GGATCAGA,-0.0306
2,AACTAATC,-0.188
3,CTATGTAC,0.378
4,CGGCACCA,-0.159
5,GAGACGGC,-0.0361
6,ACGCTCCC,-0.0438
7,AAGCCATA,-0.216
8,TCTTTTCA,0.0704
9,GAACGGTC,-0.253
10,AGATGACA,0.152
11,TCATCTAA,0.059
12,GGAGAAAA,-0.133
13,CTGGGAAA,-0.155
14,AGTCATAA,-0.206
15,CAGAGCTG,-0.235
16,AATCAGAC,-0.116
17,CATCCACG,-0.0026
18,CAATCGTG,0.119
19,CCGGGGCG,-0.387
20,GCCATGCA,-0.135
21,ATTCTTTA,0.153
22,GCCGTAAA,-0.0268
23,CCACAACG,-0.00544
24,TATCCGGA,-0.0397
25,GGTAGTAA,0.0182

row,Sequence,PBM E-score
1,AAGGTCGA,-0.239
2,GGTCGAAC,-0.0873
3,CACCGTCA,-0.156
4,AGATTGCG,-0.0144
5,GTATCTCA,0.0756
6,GCGCGCTA,0.0419
7,CGCAAACA,0.189
8,CTTATAAA,0.121
9,ACGACCGC,-0.35
10,CCCCTTGC,-0.152
11,CAGTGGCC,-0.143
12,CAAATAGC,-0.0997
13,CTCCTGTA,0.105
14,GTCTAGTA,-0.0337
15,ATGGCTGC,-0.0779
16,CCTAATAC,0.0893
17,ACGGAACG,0.0378
18,ACTAGTTA,0.097
19,TCAGAAGA,-0.257
20,AGTCTTTC,-0.182
21,CCTCGGGA,-0.328
22,AACTACTC,-0.0654
23,CACTCGGC,-0.104
24,GCTTCTCA,-0.236
25,CCGGTAGG,-0.0221

row,Sequence,PBM E-score
1,AAGCGAAT,-0.022
2,AACTTTAC,0.182
3,ATGCACCA,-0.108
4,CGGGCAAC,-0.129
5,GTACCACA,0.0306
6,CATAATAG,0.137
7,ACGCCTGG,-0.166
8,GTTTTTTA,0.0802
9,CGACCCGC,-0.107
10,CCATATCA,-0.256
11,AGCTTCAT,-0.214
12,AATCCCAT,-0.0717
13,CGAGATCG,-0.133
14,GATCCCGC,-0.228
15,AGACGAAA,-0.0417
16,CCAGCGCC,-0.308
17,TAATTGAA,0.177
18,CCGAGTCC,-0.248
19,AAGATGCA,0.0396
20,CGCCTTTC,-0.036
21,GGATACCC,-0.224
22,CGCGTCCA,-0.216
23,ATAAATGA,0.0301
24,CAATTGGC,-0.00766
25,ACCGAACA,0.139

row,Sequence,PBM E-score
1,CCGGAGCA,-0.33
2,GCTTGTAC,0.242
3,ATTCATAG,0.013
4,AGAGTTAG,-0.0306
5,CTGTATAA,0.0988
6,AGCTTGCG,-0.139
7,AATGTAGA,0.221
8,AGCTCTGC,-0.277
9,TGTACAAA,0.29
10,TACCGCCA,-0.00906
11,CTCAAAAG,0.0588
12,CGTATGCC,-0.126
13,GACATAGA,0.0532
14,GTATCCAC,-0.0662
15,TTAGCAAA,0.0611
16,AAAGTGCG,-0.0132
17,GCGCCAGA,-0.206
18,TCCATTAA,0.0521
19,CTGAGAAG,-0.0561
20,ATTGCCCA,0.0652
21,AGTCATCG,-0.131
22,TCGTGTAA,0.411
23,ACTAACCC,0.063
24,GACGGAGA,-0.182
25,AAATTAAT,0.126

row,Sequence,PBM E-score
1,GCCTTAGA,0.00775
2,CCTACACC,0.136
3,CATATGGA,-0.0698
4,CGCCTATA,0.134
5,GAGCCGAC,-0.337
6,TGACGCCA,0.00608
7,AAGGCCAA,0.0261
8,AACATCAT,0.172
9,AAGCCCAT,-0.253
10,AGACCTAT,-0.0209
11,CCTATTGA,0.124
12,CTTACTAA,0.0438
13,GATGAGAC,-0.0653
14,CGGGTCAG,-0.129
15,CGCGAAAG,-0.0323
16,CTGCCTTC,0.2
17,GCTCACCC,-0.265
18,TACGATCA,-0.0275
19,GCGCAAGA,-0.142
20,ACAATCAT,0.184
21,ATGTCTTG,0.0599
22,AAGCGAAG,0.0507
23,AGTGAATG,-0.00718
24,ATAGCGCA,-0.0413
25,CGTGTATA,0.4

row,Sequence,PBM E-score
1,AACAAAAG,0.152
2,GAGCTAGA,-0.104
3,CATCCAGC,-0.0348
4,CCATGGCC,-0.145
5,AGGCGTCC,0.174
6,GGCGGAAC,-0.0609
7,CTCTGAGA,0.0542
8,GACTCTTA,-0.0822
9,CCCTGAAC,0.0649
10,ACCGAGAA,-0.132
11,CTCCTAAC,0.107
12,CTGTTTAC,0.28
13,ACTCTGCC,0.0189
14,GCTATTTA,0.024
15,GAAGCATA,-0.181
16,ATGACGGA,0.0176
17,AATCATCA,-0.117
18,ACAGCAGG,0.183
19,CATGGAAA,0.153
20,GAGTGGGA,-0.22
21,CCCATTAA,0.143
22,CCACGCGG,-0.17
23,AAAAGACA,0.0848
24,ACGCACTG,0.00111
25,AACGTAGG,0.143

row,Sequence,PBM E-score
1,GACCGTCC,-0.367
2,AACACGTA,0.32
3,GAGCGCTA,-0.2
4,GCCAGGAA,0.124
5,AGTGACAT,0.142
6,CAAAGCTC,-0.185
7,CCAAACAG,-0.0216
8,GAGTAGAC,0.00249
9,CCAGTTAA,0.169
10,AATTCATA,-0.129
11,CCATAGAC,-0.167
12,GTTATCCA,0.0204
13,TGGAACCA,-0.133
14,CGGCAGAA,-0.235
15,GGTCACGA,-0.176
16,GCAGTGCC,0.27
17,ATATGTCA,0.114
18,CAAGGTGA,0.0661
19,ATAACCGA,-0.238
